In patent US7629351B2, “N-((1R,2S,5R)-5-(tert-butylamino)-2-((S)-2-oxo-3-(6-(trifluoromethyl)quinazolin-4-ylamino) pyrrolidin-1-yl)cyclohexyl)acetamide and other modulators of chemokine receptor activity, crystalline forms and process” (Bristol-Myers Squibb Company, priority 2006, dated 2009):

Tested on: Sodium Channel, Site 2

SMILES: CC(=O)N[C@@H]1C[C@H](NC(C)(C)C)CC[C@@H]1N1CC[C@H](Nc2ncnc3ccc(C(F)(F)F)cc23)C1=O [Example 1, N-((1R,2S,5R)-5-(tert-butylamino)-2-((S)-2-oxo-3-(6-(trifluoromethyl)quinazolin-4-ylamino)pyrrolidin-1-yl)cyclohexyl)acetamide]
- Na+ channel binding (% inhibition) (10,000 nM): 13%, 10,000 nM
- Na+ channel binding (% inhibition) (30,000 nM): 32%, 30,000 nM

Read-outs that look alike come from different tables or passages of the source.
